# Among all 350,000 compounds or so, about 31,000 (8.9%) were called active. The inconclusive results got no clear call from the source; some entries with a clear call stand among them for comparison. Calls come from the whole dose curve; as a rule, active = well fitted inhibition curve with a large enough effect; inconclusive = small, poorly fitted or top-dose-only effect; inactive = no such curve, though single readings can be large or run the other way. Where the call is inconclusive, the potency comes from a doubtful curve fit.
# Biological target: Histone-lysine N-methyltransferase EHMT2 (Homo sapiens) (UniProt Q96KQ7)
# Experiment: qHTS Assay for Inhibitors of Histone Lysine Methyltransferase G9a; note: nearly all actives have a fitted effect of over 75% in size
# Settings: G9a H3K9 monomethylation, AlphaScreen, 2 h; activity, negative = inhibition: at 59 µM (top of the series) unless noted
# In short: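 AlphaScreen detection with an anti-monomethyl H3K9 antibody quantified product after a 2 h room-temperature reaction containing 500 nM biotinylated H3K9 peptide, 20 µM SAM and 20 nM enzyme, which had been preincubated 15 min with compound.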
# % is set by controls: 0 for no effect and ±100 for the full control effect; potency is the fitted concentration of half-maximal effect; tags give direction and shape of the fitted curve.
# Chain of UniProt Q96KQ7 (Q96KQ7 whole entry, looked up): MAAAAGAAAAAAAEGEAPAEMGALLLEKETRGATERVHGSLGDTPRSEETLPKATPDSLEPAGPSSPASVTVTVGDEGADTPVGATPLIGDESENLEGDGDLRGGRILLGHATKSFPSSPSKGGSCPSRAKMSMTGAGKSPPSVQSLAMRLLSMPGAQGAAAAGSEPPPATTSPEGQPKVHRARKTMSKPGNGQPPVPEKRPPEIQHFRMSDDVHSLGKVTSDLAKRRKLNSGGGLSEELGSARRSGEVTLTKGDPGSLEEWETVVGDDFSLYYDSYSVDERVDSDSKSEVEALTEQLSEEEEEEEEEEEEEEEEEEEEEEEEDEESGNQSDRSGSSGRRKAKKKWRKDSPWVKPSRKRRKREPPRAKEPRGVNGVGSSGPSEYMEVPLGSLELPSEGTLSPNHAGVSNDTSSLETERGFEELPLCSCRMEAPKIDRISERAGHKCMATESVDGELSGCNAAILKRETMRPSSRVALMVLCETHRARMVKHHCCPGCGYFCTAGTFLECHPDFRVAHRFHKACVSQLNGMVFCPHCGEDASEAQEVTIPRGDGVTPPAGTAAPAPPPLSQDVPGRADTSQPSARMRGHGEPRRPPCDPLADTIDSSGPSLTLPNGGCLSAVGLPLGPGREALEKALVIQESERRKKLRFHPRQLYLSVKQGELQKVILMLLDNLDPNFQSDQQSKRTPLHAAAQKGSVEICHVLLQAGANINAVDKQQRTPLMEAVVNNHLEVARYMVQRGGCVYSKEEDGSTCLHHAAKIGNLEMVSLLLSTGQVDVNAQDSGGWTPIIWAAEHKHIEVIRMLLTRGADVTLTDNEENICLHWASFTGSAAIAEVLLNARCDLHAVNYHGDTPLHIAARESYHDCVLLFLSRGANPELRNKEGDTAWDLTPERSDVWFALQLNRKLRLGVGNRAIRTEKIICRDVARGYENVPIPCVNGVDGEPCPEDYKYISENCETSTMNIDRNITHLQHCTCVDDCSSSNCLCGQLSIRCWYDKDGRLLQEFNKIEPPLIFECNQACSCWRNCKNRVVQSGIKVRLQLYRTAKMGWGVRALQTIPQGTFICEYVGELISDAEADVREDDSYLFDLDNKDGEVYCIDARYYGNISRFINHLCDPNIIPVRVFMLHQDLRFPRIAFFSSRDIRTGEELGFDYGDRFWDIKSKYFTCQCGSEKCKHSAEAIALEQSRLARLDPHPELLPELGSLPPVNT
Compound,Potency,"activity, negative = inhibition"
CC(C(=O)N1CCCCC1)N(C)CC(=O)Nc1cccc(F)c1 (stereo not given),"inconclusive: 2 µM [inhibitor, partial curve, poor fit]",
NC(=O)CC(NC(=O)Cc1cccc2ccccc12)c1ccc(N2CCc3ccccc3C2)c([N+](=O)[O-])c1 (stereo not given),,inconclusive: -90.1% [inhibitor]
Cc1ccccc1NCc1nc2ccccc2n1CCOc1ccccc1,"inconclusive: 7.94 µM [inhibitor, partial curve, poor fit]",
Cc1cc(=O)n2nc(-c3ccccc3)sc2n1,,inactive: 5.72% [at 12.7 µM]
COc1ccc(CNC(=O)CN(Cc2ccc(OC)cc2)C(=O)CCC(=O)Nc2nccs2)cc1,"inconclusive: 39.8 µM [inhibitor, single point]",
CC(C)(C)c1cc(NC(=O)COC(=O)c2ccc(O)cc2O)n(-c2ccccc2)n1,"inconclusive: 79.4 µM [inhibitor, single point]",
CCOC(=O)c1ccc(N2C(=O)C(O)=C(C(C)=O)C2c2ccccn2)cc1 (stereo not given),,inconclusive: -71.2% [inhibitor]
COc1ccc(NC(=O)c2cc(C3CC3)on2)c(OC)c1,active: 44.7 µM,
COc1ccc(N(C)C(=O)Nc2ccc3c(c2)nnn3C)cc1,,inconclusive: -65.2% [inhibitor]
COc1cc(CNCc2cccnc2)ccc1OCC(=O)NC1CCCCC1,,inactive: -44.5%
COc1ccc(S(=O)(=O)NCC(c2ccco2)N2CCN(c3ccc(F)cc3)CC2)cc1C (stereo not given),"inconclusive: 5.01 µM [inhibitor, full curve]",
Cn1cc(-c2ccno2)c(C(=O)O)n1,"inconclusive: 70.8 µM [inhibitor, single point]",
CC(=O)OC1COC(n2c(O)c(N=NC(N)=S)c3ccccc32)C(OC(C)=O)C1OC(C)=O (stereo not given),"inconclusive: 79.4 µM [inhibitor, single point]",
O=C(N/N=C/c1ccc(N2CCOCC2)o1)c1cccc(F)c1,active: 7.08 µM,
C=CCNc1oc(-c2cccc3ccccc23)nc1C#N,,inconclusive: -74.6% [inhibitor]
CCN1CCN(C(=O)c2ccc(OCC(=O)Nc3ccc(F)cc3)c(OC)c2)CC1,"inconclusive: 1 µM [inhibitor, partial curve, poor fit]",
CCn1c(C)nc2cc(C(=O)NNC(=S)Nc3ccc(F)cc3)ccc21,active: 44.7 µM,
CCOC(=O)c1nnn(-c2nonc2-c2ccccc2)c1C,"inconclusive: 35.5 µM [inhibitor, single point]",
Cc1cc2c(cc1C)C(=O)NC(C)(C)C2,,inactive: 7.88%
Cc1cc(C)c2c(=O)[nH]c(SCC(=O)c3ccc(C)c(C)c3)nc2n1,active: 50.1 µM,
O=C(Cn1nc(Cc2cccnc2)c2ccccc2c1=O)NCc1ccc2c(c1)OCO2,"inconclusive: 89.1 µM [inhibitor, single point]",
COc1cc2c(cc1OC)CN(C(=O)CSc1nc3[nH]ncc3c(=O)n1-c1ccccc1)CC2,"inconclusive: 0.794 µM [inhibitor, partial curve, poor fit]",
CCNC(=S)NNC(=O)c1cc(-c2ccc(OCC)cc2)nc2ccccc12,"inconclusive: 39.8 µM [inhibitor, full curve, poor fit]",

Compound,Potency,"activity, negative = inhibition"
O=C(O)C1C2CCCCC2=C2CCCCC2C1C(=O)O (stereo not given),"inconclusive: 31.6 µM [inhibitor, single point]",
COc1ccc(C2=NOC(C(=O)Nc3ccc4c(c3)OCO4)C2)cc1OC (stereo not given),active: 50.1 µM,
Cc1cc(C(C)(C)C)ccc1OCCN1CCCC1,active: 31.6 µM,
COc1ccc(-c2onc(C)c2-c2cnn(-c3ccccc3)c2)c(O)c1,"inconclusive: 50.1 µM [inhibitor, partial curve, poor fit]",
CCc1ccc(NC(=O)CC2C(=O)N(c3cccc(C)c3)C(=O)N2Cc2ccco2)cc1 (stereo not given),"inconclusive: 3.55 µM [inhibitor, full curve, poor fit]",
COc1ccc(Cn2ccnc2SCC(=O)Nc2ccccc2)cc1,"inconclusive: 89.1 µM [inhibitor, single point]",
CC(=O)N1CCCC1c1nc2ccccc2n1Cc1ccccc1C (stereo not given),"inconclusive: 35.5 µM [inhibitor, single point]",
COc1ccc(NC(=O)CCS(=O)(=O)c2ccc(Br)s2)cc1,active: 17.8 µM,
Cc1ccc(OCC(=O)NC(C)c2ccccc2)cc1 (stereo not given),"inconclusive: 89.1 µM [inhibitor, single point]",
CC1CCN(S(=O)(=O)c2nnc(NC(=O)c3cccc(Br)c3)s2)CC1,"inconclusive: 8.91 µM [inhibitor, partial curve]",
COc1cc(NC(=O)CC(C)n2nc(C)cc2C)cc(OC)c1 (stereo not given),,inactive: 4.02%
Cc1sc(-n2c(C)cc(/C=C3\SC(=S)NC3=O)c2C)c(C#N)c1C,"inconclusive: 0.708 µM [inhibitor, full curve, poor fit]",
N/C(Cc1ccc([N+](=O)[O-])cc1)=N\OC(=O)c1ccccc1Br,"inconclusive: 39.8 µM [inhibitor, single point]",
O=C(NCCc1ccccc1)C(=O)NCC(c1ccc2c(c1)OCO2)N1CCOCC1 (stereo not given),,inactive: 17.1%
COc1ccc(-n2c(C)cc(C(=O)CN3CCC(C)CC3)c2C)cc1,"inconclusive: 79.4 µM [inhibitor, partial curve, poor fit]",
Cc1cccc(-c2oc(C)c(C)[n+]2[O-])c1,"inconclusive: 89.1 µM [inhibitor, single point]",
O=C(O)c1cccc(N/N=C/c2cccnc2)c1,active: 28.2 µM,
CC1CCC/C(=N\NC(=O)Nc2ccccc2)C1 (stereo not given),active: 39.8 µM,
O=C(CCc1nc2sc3c(c2c(=O)[nH]1)CCCC3)N1CCN(c2ccccc2)CC1,,inactive: 1.94% [at 0.501 µM]
COC1=C(Nc2ccc(O)cc2)C(=O)c2ccccc2C1=O,active: 28.2 µM,
CCOc1ccc2nc(SCC(=O)N(C)C3CCS(=O)(=O)C3)[nH]c2c1 (stereo not given),active: 39.8 µM,
CC1(Cn2ccnn2)[C@H](C(=O)O)N2C(=O)C[C@H]2S1(=O)=O (stereo not given in full),,inactive: 22.3%

# Source: PubChem BioAssay AID504332 (National Center for Advancing Translational Sciences (NCATS), 2011)
